# From PubChem BioAssay (NCATS)
# “And” between values parts separate entries of the source, which are not always exact repeats. Equal entries are not always repeated. The inconclusive results got no clear call from the source; some entries with a clear call stand among them for comparison. For some of these results: Where the call is inconclusive, the potency comes from a doubtful curve fit. The source made the active and inactive calls. The call rests on the fitted dose curve; in most records, active means well fitted curve in the direction sought with a large enough effect; inconclusive means small, poorly fitted or top-dose-only effect, or another doubt; inactive means no such curve, though single readings can be large; an effect the other way counts as inactive or inconclusive.
# How the values were obtained:
# [1] = molecular target: Cytochrome P450 3A7 (Homo sapiens) (UniProt P24462); assay: Cytochrome P450 family 3 subfamily A member 7 (CYP3A7) small molecule antagonists: luciferase biochemical qHTS assay (AID 1963596); further: nearly all actives have a fitted effect of over 40% in size; further: potency means the concentration at half of the fitted maximal effect
# UniProt P24462, sequence (P24462 whole entry, looked up): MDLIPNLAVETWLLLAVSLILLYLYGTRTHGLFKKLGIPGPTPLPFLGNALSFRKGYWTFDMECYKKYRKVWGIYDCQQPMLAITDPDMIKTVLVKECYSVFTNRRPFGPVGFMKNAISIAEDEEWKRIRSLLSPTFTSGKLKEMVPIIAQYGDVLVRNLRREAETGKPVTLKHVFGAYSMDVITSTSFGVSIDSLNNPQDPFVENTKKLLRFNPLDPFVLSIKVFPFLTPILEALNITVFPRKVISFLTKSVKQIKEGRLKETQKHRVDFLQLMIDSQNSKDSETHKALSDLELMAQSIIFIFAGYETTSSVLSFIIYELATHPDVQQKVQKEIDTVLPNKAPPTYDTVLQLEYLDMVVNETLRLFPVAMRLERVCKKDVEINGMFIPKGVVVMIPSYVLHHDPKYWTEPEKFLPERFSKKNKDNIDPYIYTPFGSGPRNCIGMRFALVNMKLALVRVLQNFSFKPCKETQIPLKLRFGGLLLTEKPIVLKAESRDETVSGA
# How it was run: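 Recombinant CYP3A7 P450-Glo luminescent assay: enzyme-proluciferin substrate mix preincubated with compound 10 min at room temperature, reaction started with NADPH regeneration system for 1 h. Luciferin detected by luminescence; ketoconazole as positive control.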
# [2] = Viability qHTS for spleen associated tyrosine kinase inhibitor (SYKi) naive MV4-11 cells (AID 1963823); conditions: MV4-11 AML viability, CellTiter-Glo luminescence, 72 h; viability (% of control): at 45 µM (top of the series); further: nearly all actives have a fitted effect of over 40% in size; further: potency means the concentration at half of the fitted maximal effect
# How it was run: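 CellTiter-Glo luminescence, 10 min room-temperature incubation, gave viability. Cells: naive MV4-11 (500/well), treated 72 hr at 37 C, 5% CO2.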
# [3] = Cellular viability qHTS for adrenocortical cancer (ACC) cell line SW-13 (AID 1963989); conditions: SW-13 ACC cells viability, CellTiter-Glo, 48 h; activity (max response): stronger effect = lower value; further: nearly all actives have a fitted effect of over 65% in size; further: potency means the concentration at half of the fitted maximal effect;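 on activity (max response): cells grown in serum-free medium with ITS supplement; on the % scale 0 is the no-effect control and ±100 the full control effect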
# How it was run: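 Here, serum-free SW-13 cultures were dosed up to 46 uM. Following 48 h, ATP-dependent luminescence (CellTiter-Glo) reported viable cells, and logistic modeling produced IC50 values.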
# [4] = Cellular viability qHTS for adrenocortical cancer (ACC) cell line NCI-H295R (AID 1963990); conditions: CellTiter-Glo ATP luminescence, 48 h; activity change, negative = viability loss: at 46.1 µM (top of the series); further: nearly all actives have a fitted effect of over 60% in size; further: potency means the concentration at half of the fitted maximal effect;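 on activity change, negative = viability loss: 0% = DMSO only wells and -100% = full killing with cytotoxic reference compound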
# How it was run: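 Viability of NCI-H295R after 48 h of treatment (final up to 46 uM) measured through cellular ATP luminescence.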
# [5] = Quantitative highthroughput screen to assess conditional lethalithy of NOMO1 cells grown in Human Plasma-Like Medium with dialyzed fetal bovine serum (HPLM+ds) (AID 1963878); conditions: NOMO1 AML cells in HPLM+ds, CellTiter-Glo viability, 48 h; viability: at 45.8 µM (top of the series); further: potency means the concentration at half of the fitted maximal effect; nearly all actives have a fitted effect of over 35% in size
# How it was run: (§1)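 Each medium arm—HPLM with 10% dialyzed FBS, or RPMI1640 with 5 mM glucose and 10% untreated or dialyzed FBS—was screened against an 11-point, 3-fold compound titration for 48 h at 37 °C, with CellTiter-Glo luminescence as endpoint.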
# [6] = Quantitative highthroughput screen to assess conditional lethalithy of P12 Ichikawa cells grown in RPMI1640 with dialyzed fetal bovine serum (RPMI+ds) (AID 1963880); conditions: Potency: P12-Ichikawa viability;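 further: 100% = DMSO wells and 0% = empty wells on each plate; nearly all actives have a fitted effect of over 35% in size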
# How it was run: as §1
# [7] = Quantitative highthroughput screen to assess conditional lethalithy of SEM cells grown in RPMI1640 with unreated serum (RPMI+s) (AID 1963883); conditions: SEM B-ALL cells, CellTiter-Glo viability, 48 h; viability: at 45.8 µM (top of the series); further: potency means the concentration at half of the fitted maximal effect; nearly all actives have a fitted effect of over 35% in size
# How it was run: as §1
# [8] = Quantitative highthroughput screen to assess conditional lethalithy of SEM cells grown in RPMI1640 with dialyzed fetal bovine serum (RPMI+ds) (AID 1963884); conditions: SEM B-ALL cells, RPMI+dialyzed FBS, CellTiter-Glo viability, 48 h; viability: at 45.8 µM (top of the series); further: nearly all actives have a fitted effect of over 35% in size; further: potency means the concentration at half of the fitted maximal effect;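 on Viability: 100% = DMSO control wells and 0% = empty wells without cells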
# How it was run: as §1
# [9] = Viability qHTS for spleen associated tyrosine kinase inhibitor (SYKi) drug resistant MV4-11 cells (AID 1963824); further: nearly all actives have a fitted effect of over 35% in size; further: potency means the concentration at half of the fitted maximal effect
# How it was run: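 CellTiter-Glo luminescence, read 10 min after reagent addition, reports viability after a 72 hr compound exposure. Cells are an MV4-11 line made resistant to SYK inhibition, seeded at 500 per well onto compound-containing plates.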
# [10] = Quantitative highthroughput screen to assess conditional lethalithy of NOMO1 cells grown in RPMI1640 with dialyzed fetal bovine serum (RPMI+ds) (AID 1963877);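 further: 100% = DMSO control wells and 0% = empty wells; nearly all actives have a fitted effect of over 30% in size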
# How it was run: as §1
# [11] = Quantitative highthroughput screen to assess conditional lethalithy of P12 Ichikawa cells grown in Human Plasma-Like Medium with dialyzed fetal bovine serum (HPLM+ds) (AID 1963879); conditions: Potency: viability; further: nearly all actives have a fitted effect of over 35% in size
# How it was run: as §1
# [12] = Quantitative highthroughput screen to assess conditional lethalithy of P12 Ichikawa cells grown in RPMI1640 with untreated serum (RPMI+s) (AID 1963881); conditions: Potency: viability
# How it was run: as §1
# [13] = Quantitative highthroughput screen to assess conditional lethalithy of SEM cells grown in Human Plasma-Like Medium with dialyzed fetal bovine serum (HPLM+ds) (AID 1963882); further: nearly all actives have a fitted effect of over 35% in size
# How it was run: as §1
# [14] = Quantitative highthroughput screen to assess conditional lethalithy of NOMO1 cells grown in RPMI1640 with untreated serum (RPMI+s) (AID 1963876); conditions: NOMO1 AML cells in RPMI+serum, CellTiter-Glo viability, 48 h; viability: at 45.8 µM (top of the series)
# How it was run: as §1
# Tags describe the fitted curve by direction and shape.
smiles,measurement,setting,value
CN(Cc1ccc(C(C)(C)C)cc1)Cc1cccc2ccccc12,Potency,[1],"inconclusive: 21.9 µM [inhibitor, partial curve]"
same,Potency,[2],inactive
same,Potency,[3],"inconclusive: 23.1 µM [cytotoxic, single point]"
same,Potency,[4],"inconclusive: 29.1 µM [cytotoxic, single point]"
Cc1ccccc1-n1nc(-c2c(-c3ccc(F)cc3)nn3c2NC[C@@H](CO)C3)ccc1=O,Potency,[1],"inconclusive: 10.7 µM [inhibitor, partial curve, poor fit]"
same,Potency,[2],"inconclusive: 5.8 µM [cytotoxic, partial curve, poor fit]"
same,Potency,[4],inactive
CC[N+]1(CC)CCC(=C(c2ccccc2)c2ccccc2)C1C (configuration not stated),Potency,[1],"inconclusive: 21.9 µM [inhibitor, single point]"
same,Potency,[2],"inconclusive: 21.1 µM [cytotoxic, partial curve]"
same,Potency,[3],"inconclusive: 16.4 µM [cytotoxic, single point]"
O=C1CSC(=O)N1C(CCc1ccncc1)COc1ccc(-c2cccc([N+](=O)[O-])c2)cc1 (configuration not stated),Potency,[1],active: 1.34 µM
same,Potency,[2],active: 7.42 µM
same,Potency,[5],"inconclusive: 29.6 µM [cytotoxic, single point]"
same,Potency,[6],inactive
same,Potency,[7],"inconclusive: 18.7 µM [cytotoxic, partial curve]"
same,Potency,[8],"inconclusive: 33.2 µM [cytotoxic, single point]"
same,Potency,[4],"inconclusive: 10 µM [cytotoxic, partial curve]"
Cc1cc(=O)oc2cc(O)ccc12,Potency,[1],inactive
same,Potency,[9],inactive
same,Potency,[10],inactive
same,Potency,[11],inactive
same,Potency,[12],inactive
same,Potency,[13],inactive
same,Potency,[8],inactive
CCC(CC)C(=O)Nc1sc2c(c1C#N)CCC(C(C)(C)CC)C2 (configuration not stated),Potency,[1],"inconclusive: 25.1 µM [inhibitor, single point]"
same,Potency,[9],"inconclusive: 16.4 µM [cytotoxic, single point]"
O[C@@H]1CO[C@H]2[C@@H]1OC[C@@H]2O,Potency,[1],inactive
same,Potency,[9],inactive
same,Potency,[4],inactive
Cc1c(C(=O)NCCO)[n+](=O)c2ccccc2n1[O-],Potency,[1],inactive
same,Potency,[9],inactive
OCCCc1ccccc1,Potency,[1],inactive
same,Potency,[9],inactive
COC(=O)c1ccccc1C(=O)c1ccc(OCCN2CCCCC2)cc1,Potency,[1],inactive
same,Potency,[9],inactive
C[C@]12CCC(=O)C=C1CC[C@@H]1[C@@H]2[C@@H](O)C[C@@]2(C)[C@H]1CC[C@]2(O)C(=O)COC(=O)CCC(=O)O,Potency,[1],"inconclusive: 11 µM [inhibitor, partial curve, poor fit]"
same,Potency,[9],inactive
same,Potency,[4],inactive
Cc1c(NC(C)C)c(=O)n(-c2ccccc2)n1C,Potency,[1],"inconclusive: 19.5 µM [inhibitor, single point]"
same,Potency,[9],inactive
same,activity (max response),[3],inactive: 8.03%
COC(=O)[C@H]1[C@H]2C[C@@H]3c4[nH]c5cc(OC)ccc5c4CCN3C[C@H]2C[C@@H](OC(=O)COc2ccc(OC)cc2)[C@@H]1OC,Potency,[1],"inconclusive: 5.49 µM [inhibitor, full curve]"
same,Potency,[9],"inconclusive: 3.76 µM [cytotoxic, partial curve, poor fit]"
same,activity (max response),[3],inactive: -9.25%
same,Potency,[4],"inconclusive: 29.1 µM [cytotoxic, single point]"
CCN1CCC[C@H]1CNC(=O)c1c(OC)ccc(Br)c1OC,Potency,[1],"inconclusive: 19.5 µM [inhibitor, single point]"
same,Potency,[9],"inconclusive: 2.99 µM [cytotoxic, partial curve, poor fit]"
same,activity (max response),[3],inactive: -0.795%
same,Potency,[4],inactive
Nc1ccc(C(=O)O)c(O)c1,Potency,[1],"inconclusive: 43.6 µM [inhibitor, partial curve, poor fit]"
same,Potency,[9],inactive
CCN(CC)C(=O)N1CCN(C)CC1,Potency,[1],"inconclusive: 11 µM [inhibitor, partial curve, poor fit]"
same,Potency,[9],inactive
same,Potency,[4],"inconclusive: 7.31 µM [rising, partial curve, poor fit]"
O=S(=O)(O)CCS,Potency,[1],"inconclusive: 21.9 µM [inhibitor, partial curve, poor fit]"
same,Potency,[9],inactive
same,Potency,[5],"inconclusive: 0.935 µM [cytotoxic, full curve]"
same,Potency,[13],inactive
CC(C)(C)C(=O)Oc1ccc(S(=O)(=O)Nc2ccccc2C(=O)NCC(=O)O)cc1,Potency,[1],"inconclusive: 19 µM [inhibitor, partial curve]"
same,Potency,[9],inactive
same,Potency,[14],inactive
same,Potency,[12],inactive
same,Potency,[13],inactive
CN1CCC(c2c[nH]c3ccc(NC(=O)c4ccc(F)cc4)cc23)CC1,Potency,[1],"inconclusive: 11.2 µM [inhibitor, partial curve, poor fit]"
same,Potency,[9],"inconclusive: 23.1 µM [cytotoxic, single point]"
COC(=O)[C@@H]1CC2=CC(=O)CC[C@]2(C)[C@@]23O[C@@H]2C[C@@]2(C)[C@@H](CC[C@@]24CCC(=O)O4)[C@H]13,Potency,[1],"inconclusive: 24.5 µM [inhibitor, single point]"
same,Potency,[9],"inconclusive: 1.06 µM [cytotoxic, partial curve, poor fit] and inconclusive: 93.4 nM [cytotoxic, full curve, poor fit]"
